Experimental data taken from PMC2423471, “HyperISGylation of Old World Monkey ISG15 in Human Cells” (PLoS ONE, 2008).

Target: T1, HuUbE1L (purified recombinant) (human, UniProt P41226 1-1012)
T1 construct: source: bought: Boston Biochem
T1 sequence (looked up): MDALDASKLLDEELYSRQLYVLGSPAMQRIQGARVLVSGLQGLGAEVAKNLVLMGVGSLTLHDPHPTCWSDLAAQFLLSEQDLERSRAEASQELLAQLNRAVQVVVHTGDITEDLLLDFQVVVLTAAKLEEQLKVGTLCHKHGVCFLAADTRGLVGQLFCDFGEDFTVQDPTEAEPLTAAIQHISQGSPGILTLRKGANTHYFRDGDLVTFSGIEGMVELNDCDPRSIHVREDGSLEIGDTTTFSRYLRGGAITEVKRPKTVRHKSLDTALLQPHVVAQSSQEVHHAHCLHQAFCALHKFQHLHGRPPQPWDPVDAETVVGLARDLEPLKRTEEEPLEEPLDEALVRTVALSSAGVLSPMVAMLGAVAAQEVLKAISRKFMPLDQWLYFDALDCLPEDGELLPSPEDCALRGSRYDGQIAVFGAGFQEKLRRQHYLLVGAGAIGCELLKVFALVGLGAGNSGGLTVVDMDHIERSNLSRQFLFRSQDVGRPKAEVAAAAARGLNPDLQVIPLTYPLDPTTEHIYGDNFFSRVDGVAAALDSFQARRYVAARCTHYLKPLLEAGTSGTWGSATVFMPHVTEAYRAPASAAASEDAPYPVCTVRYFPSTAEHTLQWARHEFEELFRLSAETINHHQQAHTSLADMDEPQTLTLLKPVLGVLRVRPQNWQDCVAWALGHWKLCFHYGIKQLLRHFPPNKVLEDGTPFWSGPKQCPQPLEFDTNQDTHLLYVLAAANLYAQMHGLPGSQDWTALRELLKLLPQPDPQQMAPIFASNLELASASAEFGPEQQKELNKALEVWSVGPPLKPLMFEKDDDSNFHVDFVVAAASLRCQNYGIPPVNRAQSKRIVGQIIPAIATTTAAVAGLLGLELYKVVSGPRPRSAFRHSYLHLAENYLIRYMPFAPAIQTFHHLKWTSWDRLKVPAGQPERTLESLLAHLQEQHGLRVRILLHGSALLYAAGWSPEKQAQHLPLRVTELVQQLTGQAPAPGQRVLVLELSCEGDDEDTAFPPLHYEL
Experiment: in vitro thiolester formation, non-reducing SDS-PAGE; 2.5 µM UbcH8, 200 nM UbE1 or UbE1L, 7.5 µM mature Hu- or AgmISG15; 50 mM HEPES pH 8.0, 100 mM NaCl, 1 mM Mg-ATP, 45 min at 37°C; covalent E1-ISG15 thiolester band on non-reducing SDS-PAGE, disrupted by β-ME
Settings: both partners purified

B1: mature HuISG15 (purified recombinant) (natural protein)
chain: not shown
notes: Mature ISG15 (with removed C-terminal peptide), human, allelic variant with N at position 83 and S at position 94; also called mature ISG15; source: pTYB1 vector, IPTG-induced cultures, purified (IMPACT intein/chitin column, DTT cleavage, dialysis)
- binding result: binds
